# Experimental data as given in PubChem BioAssay AID602310 (National Center for Advancing Translational Sciences (NCATS), 2012).
# Among all 410,000 compounds or so, about 310 (0.076%) were called active. Inconclusive results, whose numbers are uncertain, are shown with a selection of clear calls. Calls come from the whole dose curve; as a rule, active = well fitted curve in the direction sought with a large enough effect; inconclusive = small, poorly fitted or top-dose-only effect; inactive = flat fitted curve, though single readings scatter. Where the call is inconclusive, the potency comes from a doubtful curve fit.
# Target: DNA dC->dU-editing enzyme APOBEC-3G (Homo sapiens) (UniProt Q9HC16)
# Chain of UniProt Q9HC16 (Q9HC16 whole entry, looked up): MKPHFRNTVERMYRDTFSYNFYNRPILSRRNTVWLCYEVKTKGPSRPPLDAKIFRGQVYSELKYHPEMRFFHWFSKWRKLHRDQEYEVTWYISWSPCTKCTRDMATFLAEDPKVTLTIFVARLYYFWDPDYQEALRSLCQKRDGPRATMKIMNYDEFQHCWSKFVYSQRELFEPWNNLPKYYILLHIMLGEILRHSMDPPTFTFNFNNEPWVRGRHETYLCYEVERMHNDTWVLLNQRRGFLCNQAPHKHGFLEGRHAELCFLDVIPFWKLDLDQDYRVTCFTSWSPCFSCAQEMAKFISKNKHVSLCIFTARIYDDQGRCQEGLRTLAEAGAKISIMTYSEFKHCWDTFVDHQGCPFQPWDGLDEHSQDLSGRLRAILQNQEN
# Experiment: qHTS for Inhibitors of Vif-A3G Interactions: qHTS; note: nearly all actives have a fitted effect of over 60% in size
# Conditions: HeLa A3G-eYFP + Vif (tagged APOBEC3G with the HIV-1 protein that degrades it), YFP fluorescence, overnight; series mostly up to 46.1 µM
# Excerpt: The recent discovery and characterization of host restriction factors, which provide a potent defense to invading retroviruses, has provided new targets for antiviral drug development. APOBEC3G (A3G) and APOBEC3F (A3F) are potent cytidine deaminases that block HIV-1 replication; HIV-1 expresses the Vif protein, which counteracts A3G and A3F by binding to them and inducing their proteasomal degradation. The Vif-A3G and Vif-A3F interactions provide two potential targets for development of small molecules which can interfere with the ability of Vif to degrade A3G or A3F. […] To identify inhibitors that can interfere with Vif mediated degradation of A3G and A3F, we have developed Hela cell lines that stably express A3G or A3F tagged with eYFP at the C-terminal end (A3G-eYFP or A3F-eYFP, respectively) and Vif. In the absence of an inhibitor, Vif induces degradation of A3G-eYFP and A3F-eYFP, and the cells are not fluorescent. In the presence of an inhibitor, it is expected that Vif will be unable to degrade A3G-eYFP and/or A3F-eYFP, resulting in an increase in yellow fluorescence. In this assays Vif A3G was screened against the Molecular Library Small Molecule Repository (MLSMR). NIH Chemical Genomics Center [NCGC] NIH Molecular Libraries Probe Centers Network [MLPCN] MLPCN Grant: MH093245 Assay Submitter (PI): Vinay Pathak, National Cancer Institute
# 5 uL of 700 cells/well of A3G-YFP cells are dispensed into black, clear bottom plates. The plates are incubated overnight at 37 deg C. 23 nL of compounds are added by pintool. The plates are incubated overnight at 37 deg C and then read on the TTP Acumen (Ex 488/ Em 500-530).
# Potency is the fitted concentration of half-maximal effect; tags give direction and shape of the fitted curve.
row,Structure (SMILES),Potency
1,COC(=O)c1ccc(C(=O)OC)c(NC(=O)c2c(-c3ccccc3)noc2C)c1,"inconclusive: 2 µM [inhibitor, full curve, poor fit]"
2,CCOc1ccc2nc3cc(NCc4ccc(OC)cc4)ccc3c(N)c2c1,"inconclusive: 35.5 µM [inhibitor, single point]"
3,CC(O)(C#CCN1CCCCCC1)c1ccccc1 (stereo not given),inactive
4,CCN(CC)c1ccc(C2NC(=O)c3ccccc3N2)cc1 (stereo not given),"inconclusive: 3.98 µM [inhibitor, full curve]"
5,Cc1nn(-c2ccccc2)c2sc(C(=O)Nc3cccc(Cl)c3)cc12,inactive
6,Fc1ccccc1NC(=S)Nc1ccc(Br)cc1,inactive
7,O=c1[nH]c(CSc2nc(-c3ccc(F)cc3)cs2)nc2ccccc12,inactive
8,NNC(=O)c1[nH]c2ccccc2c1-c1ccccc1,"inconclusive: 1.12 µM [inhibitor, full curve]"
9,O=C(O)c1cccc(-c2ccc(/C=N/Nc3ccc([N+](=O)[O-])cc3)o2)c1,"inconclusive: 15.8 µM [inhibitor, partial curve, poor fit]"
10,CC1Cc2cc(S(=O)(=O)CCC(=O)NCc3ccco3)ccc2N1C(=O)C1CC1 (stereo not given),"inconclusive: 11.2 µM [inhibitor, partial curve, poor fit]"
11,COC(=O)C1=C(C)Nc2nc3ccccc3n2C1c1ccccc1F (stereo not given),"inconclusive: 7.94 µM [inhibitor, partial curve]"
12,COc1ccc(/C=C2\SC(=S)NC2=O)cc1OS(=O)(=O)c1ccc(NC(C)=O)cc1,inactive
13,Clc1ccc(COn2c(-c3ccc(Cl)cc3)nc3ccccc32)cc1,inactive
14,COc1ccccc1NS(=O)(=O)c1ccc(-c2cc(C)no2)s1,"inconclusive: 2.82 µM [inhibitor, full curve, poor fit]"
15,C/C(=N\NC(=O)c1csc(C)c1C)c1ccc(Cl)s1,inactive
16,CCOC(=O)/C=C(\C)Sc1cc(O)c2ccccc2c1O,"inconclusive: 22.4 µM [inhibitor, single point]"
17,CCCCCCCCN1[C@@H](CC(C)=O)c2ccc(/C=C/C(C)=O)cc2S1(=O)=O,"inconclusive: 25.1 µM [inhibitor, single point]"
18,O=C(/C=C/c1c[nH]c2ccccc12)c1ccccc1,"inconclusive: 20 µM [inhibitor, single point]"
19,COc1ccc(NS(=O)(=O)c2ccc(N3CCCC3=O)cc2)cn1,"inconclusive: 6.31 µM [inhibitor, partial curve, poor fit]"
20,O=C(Nc1cccc(-c2nc3ccccc3o2)c1)C(F)(F)F,"inconclusive: 25.1 µM [inhibitor, single point]"
21,CC[n+]1cc(C)ccc1/C=C/c1ccc(N(C)C)cc1,"inconclusive: 15.8 µM [inhibitor, partial curve, poor fit]"
22,Cc1onc(-c2ccccc2Cl)c1C(=O)N1CCN(c2ccccc2)CC1,"inconclusive: 35.5 µM [inhibitor, single point]"
23,CN(C)S(=O)(=O)c1ccc2c(c1)/C(=C/c1cc3c([nH]1)CCCC3)C(=O)N2,"inconclusive: 2.51 µM [inhibitor, full curve, poor fit]"

row,Structure (SMILES),Potency
1,O=C(CCCSc1ccc(Cl)cc1)Nc1cc(S(=O)(=O)N2CCOCC2)ccc1O,inactive
2,C[C@H](NC(=O)c1[nH]cnc1C(=O)Nc1ccc(CNC(=O)OC(C)(C)C)cc1)C(=O)OCc1ccccc1,"inconclusive: 35.5 µM [inhibitor, single point]"
3,CCCCCCC[n+]1ccc(/C=C/c2c[nH]c3ccccc23)c2ccccc21,"inconclusive: 6.31 µM [inhibitor, single point]"
4,O=c1[nH]c(/C=C/c2ccccc2F)nc2ccccc12,"inconclusive: 2.82 µM [inhibitor, full curve]"
5,N#C/C(=N\Nc1cccc(C(F)(F)F)c1)C(=O)c1ccsc1,inactive
6,O=C(Cc1ccc(OCc2ccccn2)cc1)NO,"inconclusive: 5.62 µM [inhibitor, single point]"
7,Cc1cccc(CSc2cccc3cccnc23)c1,"inconclusive: 10 µM [inhibitor, partial curve, poor fit]"
8,c1cncc(-c2nc(-c3ccco3)cs2)c1,inactive
9,S=c1[nH]nc(-c2cc(-c3ccccc3)n[nH]2)n1/N=C/C(Br)=C/c1ccccc1,"inconclusive: 3.55 µM [inhibitor, full curve, poor fit]"
10,CC(=O)c1nnn(-c2ccc([N+](=O)[O-])cc2C)c1C,inactive
11,CCOC(=O)c1c(C)[nH]c(C(=O)/C(C#N)=C/c2ccc(OC(F)F)c(OC)c2)c1C,"inconclusive: 5.62 µM [inhibitor, partial curve]"
12,Cc1ccc(C2N(C)C(=O)c3ccccc3N2C)cc1 (stereo not given),"inconclusive: 35.5 µM [inhibitor, single point]"
13,COc1cccc(C(C2C(=O)CC(C)(C)CC2=O)C2C(=O)CC(C)(C)CC2=O)c1,inactive
14,O=C(c1ccccc1)c1c2c(cc3sc4ccccc4[n+]13)-c1cccc3cccc-2c13,active: 6.31 µM
15,COc1ccc(-c2csc(-c3ccc(O)cc3)n2)cc1,"inconclusive: 2 µM [inhibitor, full curve, poor fit]"
16,Cn1nnc2c(N3CCN(c4ccc(F)cc4)CC3)ncnc21,inactive
17,Cc1ccc2nc3sc(C(=O)N4CCCc5ccccc54)c(N)c3cc2c1,"inconclusive: 3.16 µM [inhibitor, partial curve, poor fit]"
18,COc1cc(C(=O)Nc2ccc3ccccc3c2)cc(OC)c1OC,"inconclusive: 1.78 µM [inhibitor, full curve]"
19,Cc1cc(C)nc(Sc2nc(Cl)nc(N(c3ccccc3)c3ccccc3)n2)n1,"inconclusive: 35.5 µM [inhibitor, single point]"
20,COC(=O)C1=CN(Cc2ccc(C)cc2)C=C(C(=O)OC)C1c1ccc(F)c(F)c1,inactive
21,Cc1ccc(C)c(C(=O)COc2ccccc2[N+](=O)[O-])c1,inactive
22,Cc1ccc(C)c(NC(=O)Cn2cc(S(=O)(=O)Cc3cccc(Cl)c3)c3ccccc32)c1,"inconclusive: 12.6 µM [inhibitor, partial curve]"
